Source: PubChem BioAssay AID624296 (National Center for Advancing Translational Sciences (NCATS), 2012)
Hit rate of the full screen: of about 350,000 compounds, about 9,900 (2.8%) were called active. The inconclusive results got no clear call from the source; some entries with a clear call stand among them for comparison. Calls follow the shape of the dose curve; as a rule, active = well fitted activation curve with a large enough effect; inconclusive = small, poorly fitted or top-dose-only effect; inactive = no such curve, though single readings can be large or run the other way. No potency is given beside an inconclusive call; the fits are too rough.

Assay: A quantitative high throughput screen for small molecules that induce DNA re-replication in MCF 10a normal breast cells. Also: nearly all actives have a fitted effect of over 50% in size. As to activity, positive = re-replication: % of control where 0% means no effect.
Details: MCF 10A DNA re-replication, Hoechst nuclear intensity, 48 h; activity, positive = re-replication: at 46.1 µM (top of the series)
Potency is read from the fitted curve at half-maximal effect; tags tell the direction and shape of the fitted curve.

SMILES | activity, positive = re-replication | Potency
CN(c1ccc(F)cc1)S(=O)(=O)c1ccc(Cl)c(C(=O)NC2(C)CCS(=O)(=O)C2)c1 (stereo not drawn) | inactive: 14% | –
CCCC(=O)Nc1cc(C)cn(Cc2c(F)cccc2Cl)c1=O | inactive: -6.6% | –
CC(Sc1nc(-c2ccccc2)cc(C(F)(F)F)n1)C(=O)Nc1ccc2c(c1)OCO2 (stereo not drawn) | – | inconclusive [activator, partial curve, poor fit]
Cc1noc(C)c1NC(=O)Nc1ccc2c(c1)C(=O)N([C@H](C)CO)C[C@H](C)[C@@H](CN(C)C(=O)NC1CCCCC1)O2 | inactive: 7.35% | –
CCn1c(CN2CCN(c3cccc(C)c3C)CC2)n[nH]c1=S | – | inconclusive [activator, single point]
FC(F)(F)c1cc(-c2ccc3c(c2)OCO3)nc(NCc2ccco2)n1 | – | inconclusive [activator, partial curve, poor fit]
Cc1ccc(NN2C(=O)C=C(c3ccccc3)C2=O)cc1 | – | active: 8.2 µM
CCc1ccccc1NC(=S)N1CCN(c2ccccn2)CC1 | inactive: 2.18% | –
COc1ccc(-c2oc3cc(OC)c(O)c(OC)c3c(=O)c2OC)cc1O | – | inconclusive [activator, partial curve]
O=C(CC1Sc2ncnn2C1=O)Nc1ccccc1 (stereo not drawn) | – | inconclusive [activator, single point]
CCN(CC)C(=O)CSc1nc2c(sc(=S)n2-c2ccccc2)c(=O)[nH]1 | – | active: 0.651 µM
OC(CNCc1ccc(Cl)cc1)C(F)(F)F (stereo not drawn) | – | inconclusive [activator, single point]
COC(=O)c1ccc(OCc2nn[nH]n2)cc1 | inactive: 8.34% | –
CCN(CC(=O)Nc1ccc(C(C)=O)cc1)CC(=O)Nc1ccc2c(c1)OCCO2 | inactive: -0.0803% | –
O=C(Nc1ccc(S(=O)(=O)N2CCCCC2)cc1)c1ccc(CN2CCc3ccccc3C2)cc1 | – | inconclusive [activator, partial curve, poor fit]
CC1(C)SC(=S)N(/N=C/c2ccccc2)C1N(O)C(=O)Nc1ccc([N+](=O)[O-])cc1 (stereo not drawn) | inactive: 18.1% | –
O=C(N/N=C/c1ccc([N+](=O)[O-])o1)C1CC1 | inactive: 10.5% | –
CCOC(=O)c1sc2nc(CSc3ccccc3)nc(NCCN(C)C)c2c1C | – | inconclusive [activator, single point]
c1ccc(-c2nc3ccccn3c2NC2CCCC2)nc1 | inactive: 23.2% | –
CCCc1nnc(-c2cc(OC)c(OC)c(OC)c2)o1 | inactive: 13.7% | –
CC(=O)C1=C(C)NC(SCC(N)=O)=C(C#N)C1c1cccs1 (stereo not drawn) | – | inconclusive [activator, partial curve, poor fit]
COc1ccc2[nH]c(=O)c(CN(C3CCCCC3)C(c3nnnn3Cc3ccco3)C(C)C)cc2c1 (stereo not drawn) | – | inconclusive [activator, single point]
O=C(CC(CC(=O)c1ccc(Cl)cc1)c1ccccc1C(=O)O)c1ccc(Cl)cc1 | – | inconclusive [activator, single point]

SMILES | activity, positive = re-replication | Potency
Cc1cc(F)ccc1S(=O)(=O)N(C(=O)c1ccncc1)c1ccc(OC(=O)c2ccncc2)cc1 | – | inconclusive [activator, single point]
CC(C)(C)c1nn(-c2ccccc2)c2[nH]c(=O)c(C=O)cc12 | – | inconclusive [activator, full curve, poor fit]
Cc1ccc(NC(=O)CN2CCC(Cc3ccccc3)CC2)cc1S(=O)(=O)N(C)C | – | inconclusive [activator, single point]
CC(=O)c1nn(-c2ccc(Cl)cc2)cc1C(=O)c1ccccc1 | – | inconclusive [activator, partial curve, poor fit]
O=C(CSc1nnc(C2COc3ccccc3O2)o1)Nc1nccs1 (stereo not drawn) | inactive: 12.5% | –
CCOc1ccc2nc(NS(=O)(=O)c3ccc(NC(C)=O)cc3)sc2c1 | inactive: 13.5% | –
Cc1ccccc1NC(=O)Cc1nnc(SCC(=O)N2CCOCC2)n1C | inactive: -2.08% | –
COc1cccc(C(O)Cc2nc3ccccc3n2C)c1OC (stereo not drawn) | – | inconclusive [activator, single point]
CCC1(C)NC(=O)N(CC(=O)c2cc(C)n(C3CC3)c2C)C1=O (stereo not drawn) | inactive: 2.96% | –
Cc1ccc(CS/C(Nc2ccccc2C)=C(\C#N)C(=O)NCc2ccco2)c(C)c1 | – | inconclusive [activator, full curve, poor fit]
Cc1occc1C(=O)N/N=C/c1c(O)ccc2ccccc12 | – | inconclusive [activator, single point]
O=S(=O)(c1ccc2nc(-c3ccccc3)[nH]c2c1)N1CCN(c2ccc(Cl)cc2)CC1 | – | active: 16.4 µM
CCOc1ncccc1C(=O)NCCc1ccc(OC)cc1 | – | inconclusive [activator, partial curve, poor fit]
COc1ccc(C(=O)OCCc2sc[n+](CC(=O)c3ccccc3)c2C)cc1 | – | inconclusive [activator, partial curve, poor fit]
CC(C)(C)c1ccc(OCCCNC2CCCC2)cc1 | – | active: 16.4 µM
COc1ccccc1C(c1nnnn1Cc1ccccc1)N1CCN(C2CCCC2)CC1 (stereo not drawn) | – | inconclusive [activator, partial curve, poor fit]
CC1CCN(C(=O)c2ccc(S(=O)(=O)Cc3cc(F)ccc3F)c([N+](=O)[O-])c2)CC1 | – | active: 18.4 µM
CC(C)(C)c1cc(C(=O)N/N=C/c2ccccc2O)n(-c2ccccc2)n1 | – | inconclusive [activator, partial curve, poor fit]
O=C(COCc1nc2ccccc2c(=O)[nH]1)NCC1CCCCC1 | – | inconclusive [activator, partial curve, poor fit]
CC(=O)Nc1ccc(C(=O)N2CCCC2)cc1 | – | inconclusive [activator, single point]
O=C(CCS(=O)(=O)Cc1ccccc1F)NCCc1ccc(Cl)cc1 | inactive: 1.37% | –
Cc1cc(N2CCCCC2)nc(SCc2ccc(C#N)cc2)n1 | – | inconclusive [activator, partial curve, poor fit]
COc1cccc(Nc2nc(N)c([N+](=O)[O-])c(NCc3ccco3)n2)c1 | – | inconclusive [activator, single point]

SMILES | activity, positive = re-replication | Potency
CC1CCCN(Cc2nc3c(c(=O)n(C)c(=O)n3C)n2Cc2c(F)cccc2Cl)C1 (stereo not drawn) | – | inconclusive [activator, full curve, poor fit]
CC(C)(C)NC(=O)C(c1ccncc1)N(C(=O)Cn1nnc(-c2ccc(F)cc2)n1)c1cccc(F)c1 (stereo not drawn) | inactive: 3.2% | –
O=C(NCc1ccccc1)C1=C[C@H](c2ccccc2)C[C@H](OCc2ccc(CO)cc2)O1 | – | inconclusive [activator, single point]
Cc1ccc(C)c2[nH]c(=O)c(CN(CCN3CCCC3)C(=O)Nc3ccc(F)cc3)cc12 | – | inconclusive [activator, single point]
COCCn1c(SCC(=O)N(C(C)C)C(C)C)nnc1-c1cc2ccccc2cc1O | inactive: 2.15% | –
Cc1sc(NC(=O)c2ccc(=O)n(C)n2)nc1-c1ccccc1 | – | active: 23.1 µM
COc1ccc(C)cc1NC(=O)c1cc2c(CO)cnc(C)c2oc1=N | – | inconclusive [activator, single point]
Cc1ccc(S(=O)(=O)/N=C2/NC(=O)/C(=C\c3cc(Br)cc(Br)c3O)S2)cc1 | – | inconclusive [activator, single point]
O=C1Nc2cc(C(=O)NCCCN3CCCC3)ccc2S/C1=C\c1ccccc1 | – | inconclusive [activator, partial curve, poor fit]
CC[C@@]1(O)CC2CN(CCc3c([nH]c4ccccc34)[C@](C(=O)OC)(c3cc4c(cc3OC)N(C)C3[C@@](O)(C(=O)OC)C(OC(C)=O)[C@]5(CC)C=CCN6CC[C@@]43C65)C2)C1 (stereo partly drawn) | – | inconclusive [activator, partial curve, poor fit]
Cc1nnc(NC(=O)CSc2n[nH]c(-c3ccccc3C)n2)s1 | – | inconclusive [activator, partial curve, poor fit]
O=C(NCc1cccnc1)C1CC(c2ccccc2Cl)=NO1 (stereo not drawn) | – | inconclusive [activator, partial curve, poor fit]
COc1ccc(-c2nc3n(c2Br)CCC3)cc1 | inactive: -5.29% | –
O=C(CN1CCCCC1)Nc1ccccc1 | inactive: 4.25% | –
COc1ccc(C(=O)c2ccc3oc(-c4ccc(OC)cc4)c(C#CCCO)c3c2)cc1 | inactive: -3.18% | –
COc1cc(C(=O)Nc2ccc(N(C)C)cc2)c([N+](=O)[O-])cc1OC | – | inconclusive [activator, single point]
O=c1c(Cl)c(NCCO)cnn1-c1cccc(Cl)c1 | inactive: -14.5% | –
CCOC(=O)c1c(C)[nH]c(C)c1C(=O)CSc1nc2ccccc2c(=O)n1-c1ccc(CC)cc1 | – | inconclusive [activator, partial curve]
C=CCNC(=O)COc1ccc(S(=O)(=O)NC2CCCCC2)cc1 | – | active: 10.3 µM
Clc1ccc(-n2ncc3c(NCc4ccco4)ncnc32)cc1 | – | inconclusive [activator, partial curve, poor fit]
CC1(C)Cc2nc3sc4c(=O)n(Cc5ccccc5)cnc4c3cc2CS1 | – | inconclusive [activator, partial curve, poor fit]
COc1ccc(Cc2nnc(N/N=C/c3ccc(O)cc3)[nH]c2=O)cc1OC | – | active: 8.2 µM
